Read-outs that look alike come from different tables or passages of the source.

One assay deals with CD4+Foxp3− T cells. Put plainly: TGFβ1-driven conversion of CD4+Foxp3− T cells to Foxp3+ (Foxp3/GFP) in vitro. It counts as cell-based, mouse.
The subject of the next assay is α4β7 and CCR9. Particulars: cited from earlier work.
The test system of assay [1] is naïve CD4+ OTII TCR Foxp3GFP− T cells. The assay is described as follows: DC-induced Foxp3 expression in naïve CD4+ OTII T cells. Particulars: non-toxic concentrations, OVA peptide and TGFβ, 5 days. Type of assay: cell-based, mouse. How it is done:
The role of retinoic acid and the efficacy of different DC subsets in the conversion of effector T cells to Foxp3+ cells were also evaluated. To determine the influence of DC subsets on aT^reg differentiation, purified CD8α^+ or CD8α^− CD11c^high DCs were tested for their capacity to induce Foxp3 expression in naïve CD4^+ OTII TCR Foxp3GFP^− T cells. […] To compare the ability for each DC subset to induce clonal expansion, the number of OTII cells was quantified at the end of the assay. Although CD8α^− DCs induced modestly better proliferation of total CD4^+ T cells, the number of induced Foxp3^+ cells was still greater with the CD8α^+ DC culture. To evaluate if retinoic acid was involved in the DC-induced conversion, the pan RAR inhibitor, LE540 was used at non-toxic concentrations. Induction of Foxp3 was inhibited by this intervention. […] Thus, it is contemplated that peripheral (not only mucosal DCs) induces T^eff->T^reg differentiation in a retinoic acid-dependent manner.

Another assay has as its system Foxp3. The assay is described as follows: RAR/RXR selective agonists tested for induction of Foxp3+ T cells. Particulars: RXRα agonist. Type of assay: cell-based, mouse. How it is done:
To identify the RAR involved in retinoic acid-induced differentiation, RAR selective agonists were tested for their ability to induce Foxp3^+ T cells.
Given the data herein, retinoid receptor-specific agonists and antagonists such as tamibarotene, AM580 (RARα agonists), AC55649 (RARβ agonist), CD437 (RARγ agonist), a mixed RAR-RXR agonist (bexarotene with RXR>RAR activity), pure RXR agonists (NRX4204 and LGD-100268), a pan-RAR antagonists (LE540, LGD-100815) and a proapoptotic retinioid (fenretinide) are used as molecular pharmacologic tools to mechanistically probe which of the classical (RARs) or non-classical (RXRs) retinoid receptors confers retinoid response in the maturation of T^eff->T^reg lymphocytes, both in vivo and in vitro. As indicated by results obtained herein, the in vivo effects of regulating T^eff->T^reg in mice is determined using these agents as pharmacological tools. Briefly, the RAR and RXR agonists (used in the sub- to μM range to retain specificity) are tested with sort-purified, Foxp3^− when cultured with TGFβ, IL2 and αCD3. Expression of Foxp3, CCR9, and α4β37 is tested, as is their suppressor cell activities, in standard suppressor assays. See, e.g., Gondek, et al. (2005) J. Immunol. 174:1783-6. This is to assure that a single agonist can induce all of the cellular responses associated with retinoic acid. […]

The subject of assay [2] is CD4+CD25− cells. The assay is described as follows: CFSE dye dilution T cell proliferation. It counts as cell-based, mouse. Particulars: 1 nM retinoic acid. From the text: To visualize whether this occurs, CFSE-labeled CD4+CD25− cells were activated in the presence and absence of retinoic acid to observe TGFβ1-driven conversion. One nM of retinoic acid was used in the cultures as this concentration has been reported to drive T cell differentiation without inhibiting proliferation, and this concentration also enhances Foxp3 (FIG. 2). […] In concordance with its known T-cell suppressive character, the addition of TGFβ to cultures slowed T cell division, and yielded a Foxp3+ population. The addition of retinoic acid to the TGFβ1 and IL-2 cultures generated a substantially greater number of Foxp3+ cells throughout all peaks of cell division, with no impediment in cell division observed. […] Further supporting this finding is that retinoic acid enhances TGFβ1-mediated Foxp3 expression in the absence of co-stimulation and just the presence of an agonistic TCR signal (FIG. 4B).

Another assay has as its system IL9. The assay is described as follows: IL9 production by T cells stimulated with αCD3, IL2 and TGFβ. Type of assay: cell-based, mouse.
In assay [3] the test system is CD4+CD25− cells. Particulars: cited from earlier work.

With `C=C1/C(=C\C=C2/CCC[C@]3(C)[C@@H]([C@H](C)CCCC(C)(C)O)CC[C@@H]23)C[C@@H](O)C[C@@H]1O` [1,25D], in the assay on CD4+Foxp3− T cells (broad dose range), the “Foxp3 expression induced with αCD3 and TGFβ” value is “nor does it induce Foxp3 expression”; the “effect on retinoic acid-induced Foxp3 expression” value is listed as “does not interfere with retinoic acid-induced Foxp3 expression”. In addition, the “retinoic acid-induced expression of α4β7 and CCR9” value with α4β7 and CCR9 was “inhibits the retinoic acid-induced expression of α4β7 and CCR9”.
`CN1c2cc3c(cc2N=C(c2ccc(C(=O)O)cc2)c2ccc4ccccc4c21)C(C)(C)CCC3(C)C` [LE540]: the “induction of Foxp3 by DCs” value in assay [1] was “inhibited”.
With `CC(/C=C/[C@@H]1C[C@]1(C)c1ccc2c(c1)C(C)(C)CCC2(C)C)=C\C(=O)O` [compound 4204], the “induction of Foxp3” value with Foxp3 is reported as “RXRα is involved with the induction of Foxp3”.
Turning to `CC1=C(/C=C/C(C)=C/C=C/C(C)=C/C(=O)O)C(C)(C)CCC1` [retinoic acid, all-trans retinoic acid], the “conversion with titrated TGFβ1” value in the assay on CD4+Foxp3− T cells (TGFβ1 20, 10, 5, 1 and 0 ng/ml, constant retinoic acid and IL-2) is “enhanced conversion throughout the titration”. Moreover, in the assay on CD4+Foxp3− T cells (retinoic acid-induced T^reg), the “T^reg expressing CD103” value is on record as 72%. Further, the “conversion by retinoic acid by itself” value with CD4+Foxp3− T cells (without TGFβ1, IL-2 constant) is reported as “did not induce conversion”. The T cell proliferation result in the assay on CD4+CD25− cells [2] is listed as “does not suppress T cell proliferation”; in the assay on CD4+CD25− cells [3] (doses below 5 nM), “do not inhibit proliferation”; in the assay with CD4+CD25− cells [3] (high doses, 30-100 nM), “suppress T cell proliferation”. Besides, in the assay with IL9, the “production of IL9” value is listed as “dose-dependent decrease”.

The record behind these values is US8415154B2, “Compositions and methods for producing adaptive regulatory T cells” (Trustees of Dartmouth College, priority 2007, dated 2013).
